In test [1] the test system is HSkMC (human skeletal muscle cells). As to the kind of experiment: cytotoxicity call (relative viability < 0.9). Particulars: 10 µM.
The test system of test [2] is HepG2. Description: cytotoxicity call (relative viability < 0.9). Particulars: 10 µM.
The test system of test [3] is S. aureus RN4220. As to the kind of experiment: growth inhibition call (relative growth <= 0.2). Particulars: 50 µM.

The other results are listed elsewhere or left out.

For the compound `COc1ccc([Si](C)(C)[C@H]2[C@H](CCO)O[C@@]3(C(=O)N(Cc4ccc(N5C(=O)COc6ccccc65)cc4)c4ccccc43)[C@@H]2C)cc1`, the cytotoxicity call in test [1] is “inactive”. For the same compound, the cytotoxicity call in test [2] was “active”. Further, the growth inhibition call in test [3] was “inactive”.
Consider `CN1CCN(C(=O)[C@@H]2[C@@H](CO)[C@@H]3Cn4c(ccc(C5=CCCCC5)c4=O)[C@H]2N3S(C)(=O)=O)CC1`, for which the cytotoxicity call in test [1] and in test [2] was “inactive” throughout. The growth inhibition call in test [3] was “inactive”.
For the compound `C[C@@H]1CN([C@@H](C)CO)S(=O)(=O)c2ccc(C3=CCCCC3)cc2O[C@@H]1CN(C)S(=O)(=O)c1cn(C)cn1`, the cytotoxicity call in test [1] and in test [2] was “inactive” each time. Besides, the growth inhibition call in test [3] is “inactive”.
`C[C@@H]1CCCCO[C@@H](CN(C)C(=O)Nc2ccc(C(F)(F)F)cc2)[C@@H](C)CN([C@H](C)CO)C(=O)c2cc(N(C)C)ccc2O1`: the cytotoxicity call in test [1] and in test [2] was “inactive” in each case. For the same compound, the growth inhibition call in test [3] is “inactive”.
Regarding `COc1ccccc1NC(=O)N(C)C[C@@H]1Oc2ncc(C#CC(C)C)cc2C(=O)N([C@@H](C)CO)C[C@@H]1C`, the cytotoxicity call in test [1] and in test [2] was “inactive” throughout. Further, in test [3], the growth inhibition call is “inactive”.
In the case of `CC1CCC2C(C)(CO)C(O)CCC2(C)C12CCC(CO)(CCO)O2` (stereo unspecified), the cytotoxicity call in test [1] and in test [2] was “inactive” in each case. In addition, the growth inhibition call in test [3] is “inactive”.
`C[C@H]1CCCCO[C@H](CN(C)Cc2ccccc2)[C@@H](C)CN([C@@H](C)CO)C(=O)c2cc(NC(=O)NC3CCCCC3)ccc2O1`: in test [1], the cytotoxicity call is “inactive”. Besides, the cytotoxicity call in test [2] is “active”. Moreover, the growth inhibition call in test [3] was “inactive”.
With `Cc1ccc(S(=O)(=O)Nc2ccc3c(c2)CC(=O)N([C@@H](C)CO)C[C@@H](C)[C@H](CN(C)S(=O)(=O)c2ccccc2)O3)cc1`, the cytotoxicity call in test [1] and in test [2] was “inactive” in each case. Further, the growth inhibition call in test [3] is “inactive”.
As to `C[C@@H]1CN([C@@H](C)CO)S(=O)(=O)c2ccc(C#CC3(O)CCCC3)cc2O[C@@H]1CN(C)C(=O)Nc1cccc(F)c1`, the cytotoxicity call in test [1] and in test [2] was “inactive” in each case. Also, the growth inhibition call in test [3] was “inactive”.
On to `C[C@H]1CN([C@@H](C)CO)C(=O)Cc2cc(NS(=O)(=O)c3cn(C)cn3)ccc2O[C@H]1CN(C)S(C)(=O)=O`, for which the cytotoxicity call in test [1] and in test [2] was “inactive” in each case. Also, the growth inhibition call in test [3] was “inactive”.
As for `C[C@@H](O)C#Cc1ccc2c(c1)O[C@@H](CN(C)C(=O)CN(C)C)[C@@H](C)CN([C@@H](C)CO)S2(=O)=O`, the cytotoxicity call in test [1] and in test [2] was “inactive” in each case. Moreover, the growth inhibition call in test [3] was “inactive”.
As to `CC(C)NC(=O)N(C)C[C@H]1OCc2cnnn2CCCC(=O)N([C@@H](C)CO)C[C@H]1C`, the cytotoxicity call in test [1] and in test [2] was “inactive” throughout. Besides, the growth inhibition call in test [3] was “inactive”.
Regarding `CO[C@@H]1CN(C)C(=O)c2ccc(NC(=O)c3ccc(F)cc3)cc2OC[C@H](C)N(C(=O)CN(C)C)C[C@H]1C`, the cytotoxicity call in test [1] and in test [2] was “inactive” throughout. Moreover, the growth inhibition call in test [3] is “inactive”.
Take `C[C@H](CO)N1C[C@H](C)[C@H](CN(C)C(=O)Nc2cccc(F)c2)OCc2ccccc2-c2ccccc2C1=O`: the cytotoxicity call in test [1] and in test [2] was “inactive” each time. Further, the growth inhibition call in test [3] was “inactive”.
`C[C@@H]1CN([C@H](C)CO)C(=O)c2cc(NC(=O)CCCCCC(=O)Nc3ccccc3N)ccc2O[C@@H]1CN(C)S(=O)(=O)c1cn(C)cn1`: the cytotoxicity call in test [1] and in test [2] was “inactive” throughout. Further, in test [3], the growth inhibition call is “inactive”.
Turning to `C[C@@H]1CN([C@@H](C)CO)C(=O)c2cc(C#Cc3ccncc3)cnc2O[C@H]1CN(C)C(=O)c1ccccc1F`, the cytotoxicity call in test [1] and in test [2] was “inactive” throughout. In test [3], the growth inhibition call was “inactive”.
In the case of `COc1ccc(S(=O)(=O)N(C)C[C@@H]2Oc3c(NC(=O)Nc4cccc5ccccc45)cccc3C(=O)N([C@@H](C)CO)C[C@H]2C)cc1OC`, the cytotoxicity call in test [1] and in test [2] was “inactive” in each case. For the same compound, in test [3], the growth inhibition call was “inactive”.
Regarding `Cc1cc(C(=O)Nc2cccc3c2O[C@H](CN(C)C(=O)Nc2ccc4c(c2)OCO4)[C@H](C)CN([C@@H](C)CO)C3=O)n(C)n1`, the cytotoxicity call in test [1] and in test [2] was “inactive” in each case. Besides, the growth inhibition call in test [3] is “inactive”.
For the compound `C[C@H]1CN([C@@H](C)CO)C(=O)c2cc(NC(=O)Nc3cccc4ccccc34)ccc2O[C@H]1CN(C)Cc1ccncc1`, the cytotoxicity call in test [1] and in test [2] was “inactive” throughout. For the same compound, the growth inhibition call in test [3] is “inactive”.
In the case of `COc1ccc(/C=C/C(=O)O[C@@H]2[C@@H](O)[C@H](C)O[C@@H](O[C@H]3[C@@H]4C=CO[C@@H](O[C@H]5O[C@@H](CO)[C@H](O)[C@@H](O)[C@@H]5O)[C@@H]4[C@@]4(CO)O[C@@H]34)[C@@H]2OC(C)=O)cc1`, the cytotoxicity call in test [1] and in test [2] was “inactive” throughout. Further, the growth inhibition call in test [3] is “inactive”.
Regarding `C[C@@H]1CN([C@H](C)CO)C(=O)Cc2cc(NC(=O)Nc3ccc(C(F)(F)F)cc3)ccc2O[C@@H]1CN(C)C(=O)Nc1ccc2c(c1)OCO2`, the cytotoxicity call in test [1] was “inactive”. Moreover, in test [2], the cytotoxicity call is “active”. In addition, in test [3], the growth inhibition call is “inactive”.
Regarding `COCC(=O)N1CCCc2c(C#N)nn(C)c2C1`, the cytotoxicity call in test [1] and in test [2] was “inactive” throughout. Moreover, the growth inhibition call in test [3] was “inactive”.
For `C[C@H]1CN([C@@H](C)CO)C(=O)c2cc(C#CC3(O)CCCC3)cnc2O[C@@H]1CN(C)C(=O)CN(C)C`, the cytotoxicity call in test [1] and in test [2] was “inactive” throughout. In addition, in test [3], the growth inhibition call is “inactive”.
With `COc1ccc(S(=O)(=O)N(C)C[C@H]2OCCCC[C@@H](C)Oc3ccc(NS(C)(=O)=O)cc3C(=O)N([C@@H](C)CO)C[C@@H]2C)cc1`, the cytotoxicity call in test [1] and in test [2] was “inactive” each time. For the same compound, the growth inhibition call in test [3] is “inactive”.
With `C=CCOC(=O)[C@H]1[C@@H]2C(=O)O[C@@H](c3ccccc3)[C@@H](c3ccccc3)N2[C@@H](c2ccc(OCCOC(=O)[C@@H]3C[C@@H]4C(=O)N[C@@H](CC(C)C)C(=O)N4[C@@H]3c3cccc(OCCO)c3)cc2)[C@]12C(=O)Nc1ccc(I)cc12`, the cytotoxicity call in test [1] and in test [2] was “inactive” throughout. The growth inhibition call in test [3] was “inactive”.
Take `O=C1NC(=O)[C@]2(CCc3ccccc32)N1`: the cytotoxicity call in test [1] and in test [2] was “inactive” throughout. The growth inhibition call in test [3] was “inactive”.
Turning to `CN(C)c1nc(SCC(N)=O)nc(N(C)C)n1`, the cytotoxicity call in test [1] and in test [2] was “inactive” each time. In addition, the growth inhibition call in test [3] is “inactive”.
